Hit rate of the full screen: of about 48,000 compounds, about 450 (0.94%) were called active. Not shown: some 19% with an inconclusive outcome. Calls come from the whole dose curve; as a rule, active = well fitted inhibition curve with a large enough effect; inconclusive = small, poorly fitted or top-dose-only effect; inactive = no such curve, though single readings can be large or run the other way. The list shows a part of the results.
Assay: Primary qHTS for Identification of Small Molecule Inhibitors of Huntingtin Promoter Activity; note: nearly all actives have a fitted effect of over 50% in size
Settings: HEK293 HTT promoter firefly luciferase reporter (activity 0% = vehicle and -100% = no light), 24 h; series mostly up to 57.5 µM; activity change, negative = inhibition: at the top concentration
Summary of the method: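 Firefly luciferase signal from promoter-reporter HEK293 cells was scaled between vehicle (0%) and zero RLU (-100%). Compounds were tested at final concentrations of up to 57.5 uM over 24 h at 37 degrees C. PTC124 at 50 uM final served as control inhibitor.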

Activity change, negative = inhibition, inactive:
CCOc1cccc(C(c2c(C)n(C)n(-c3ccccc3)c2=O)c2c(C)n(C)n(-c3ccccc3)c2=O)c1OC 0.497%, CCOc1ccc(NC(=O)c2nn(C)c3c2CS(=O)(=O)c2ccccc2-3)cc1 -12.3%, CCOc1ccccc1NC(=O)Cn1c(=O)n(-c2ccc(F)cc2)c(=O)c2sc3ccccc3c21 -4.98%, COc1ccc(CCNC(=O)CCCn2c(=O)c3ccccc3n(CC(=O)Nc3cc(Cl)ccc3C)c2=O)cc1OC -9.01%, Cc1ccccc1-c1noc(CCC(=O)Nc2cccc(C)c2C)n1 -13.9%, Cc1ccc2nc(-c3cc(NC(=O)/C=C/c4ccccc4)ccc3Cl)oc2c1 30%, COc1ccc(C(=O)Nc2ccc3nc(N4CCC(C)CC4)cc(C)c3c2)cc1 11.9%, COc1cc(Cl)c(C)cc1NC(=O)c1cn(C2CCCC2)c(=O)c2c1c1ccccc1n2C 5.14%, CCOc1ccc(-c2nnc(SCC(=O)NCCc3ccc(OC)c(OC)c3)nc2-c2ccc(OCC)cc2)cc1 0.662%, CCOCCCNC(=O)C(Cc1ccccc1)NS(=O)(=O)c1ccc2c(c1)c(=O)n(C)c(=O)n2C (centres undefined) -7.57%, COc1ccc(-c2nc(CSc3nncn4c3cc3occc34)c(C)o2)cc1 -18.7%, CCc1ccc(-c2[nH]c3c(c2-c2sc(C)c(C(=O)OC)c2O)c(=O)[nH]c(=O)n3C)cc1 -5.15%, Cc1nn(C(=O)c2ccc(Br)cc2)c(C)c1S(=O)(=O)N1CCOCC1 -13%, Cc1coc2c(C)c3oc(=O)c(CCC(=O)NCCc4ccccc4)c(C)c3cc12 -4.72%, Cn1c(NCCO)nc2c1c(=O)n(Cc1cccc(F)c1)c(=O)n2C 7.63%, COc1cccc(/C=C/c2nc(C#N)c(NCCc3ccc(OC)c(OC)c3)o2)c1 -26.8%, COC(=O)c1ccc2c(c1)N(Cc1ccc(F)cc1)C(=O)c1ccccc1S2 -23.4%, CCCCN1C(=O)C(O)(c2c[nH]c3ccccc23)c2cc(Br)ccc21 (centres undefined) -16.9%, CCOc1ccc(CCNC(=O)c2cnc3c(-c4ccc(F)cc4)c(C)nn3c2C)cc1OCC -6.79%, Cc1ccc(NC(=O)Cn2c(=O)n(Cc3ccco3)c(=O)c3sc4ccccc4c32)cc1C -5.3%, COc1ccc2c(c1)sc1ncc(C(=O)NCc3ccc(OC(C)C)cc3)c(=O)n12 -1.12%, Oc1c(C(c2ccc(Cl)cc2)N2CCC3(CC2)OCCO3)sc2nc(-c3ccco3)nn12 (centres undefined) 9.86%, O=C(Cn1c(=O)oc2ccccc21)Nc1ccc(C(=O)O)cc1 -18.6%, COc1cc(NC(=O)c2cccc3c2C(=O)N(C2CCCCC2)C3)cc(OC)c1 10.4%, CCOc1ccccc1NC(=O)CSc1nc2cc(OC)c(OC)cc2c2nc(-c3ccccc3)nn12 21.3%, Cc1ccc(C)c(CN2C(=O)c3ccccc3S(=O)(=O)c3ccc(C(=O)N4CCN(c5ccccc5)CC4)cc32)c1 -18.8%, C#CCSc1nc2sc3c(c2c(=O)n1Cc1ccccc1)CCCC3 -22.8%, COc1ccccc1OCCSc1nc2ccccc2n1CC(=O)N1CCOCC1 3.95%, COc1ccc(NC(=O)c2sc3nc(-c4ccc(OC)cc4)cc(C(F)(F)F)c3c2N)cc1 -13.6%, Cc1ccccc1Nc1c(-c2ccco2)nc2c(C)cccn12 -12.5%, CC1CCCCN1S(=O)(=O)c1ccc(C(=O)Nc2sc3c(c2C(N)=O)CC(C)(C)NC3(C)C)cc1 (centres undefined) -11.5%, Cc1ccc(NC(=O)CCS(=O)(=O)c2cccc3nonc23)cc1Cl -18.9%, Cc1cccc(NC(=O)Cn2c(=O)n(CCCS(=O)(=O)C3CCCCC3)c(=O)c3ccccc32)c1 -16.1%, CCOC(=O)c1ccc(-n2c(C)nc3c(cnn3-c3ccc(Cl)cc3)c2=O)cc1 -14.7%, CCOCCCNC(=O)c1[nH]c2cc(C)ccc2c1Sc1ccc(Cl)cc1 9.01%, COc1ccc(CCNC(=O)c2c(O)nc3c(C)cccn3c2=O)cc1 1.82%, CCOCCc1nn2c(=O)cc(COC(=O)c3ccccc3NC(=O)C3CCCCC3)nc2s1 -14%, COc1cc(OC)c(N(C)C(=O)CCNC(=O)Cn2cnc3ccccc3c2=O)cc1Cl -7.38%, CN(C)CCNC(=O)Cn1c(=O)c2cccn2c2ccc(F)cc21 -2.28%, COc1ccc(CNC(=O)c2ccc(NC(=O)N3CCSc4ncccc43)cc2)cc1OC -2.41%, CCOC(=O)c1c(NC(=O)CCCOc2ccc(Cl)cc2)sc2c1CCC2 -7.49%, COc1ccc(OC)c(-c2noc(N3CCN(c4ccc(C(C)=O)cc4)CC3)n2)c1 -28.4%, COc1ccc(-c2oc3ncn4nc(COc5ccc(C)cc5)nc4c3c2-c2ccc(OC)cc2)cc1 -9.31%, COc1ccc(Cc2ccc(NC(N)=O)cc2)cc1-c1cccc(Cl)c1 -2.12%, CCOC(=O)Cn1c(=O)oc2cc(S(=O)(=O)N3CCN(c4ccccc4OC)CC3)ccc21 -16.2%, O=C(NCCc1csc2nc(-c3ccccc3F)nn12)c1ccccc1C(F)(F)F -6.82%, COc1cccc(CN(C(=O)c2ccc(C(C)(C)C)cc2)C2CCS(=O)(=O)C2)c1 (centres undefined) -9.28%, CCCOc1ccc(C(=O)Nc2ccc3nn(-c4ccc(OC)c(Cl)c4)nc3c2)cc1 12.4%, CCOc1ccc(-c2nnc(SCC(=O)Nc3cc(F)ccc3F)o2)cc1 -9.69%, COc1cccc2c1Oc1nc(-c3ccccc3)nc(SCC(=O)Nc3ccccc3)c1C2 -10.3%, COc1ccc(N(CC(=O)NCCc2ccccc2)S(=O)(=O)c2ccc(OC)c(OC)c2)cc1 -17% [at 11.5 µM], Cc1ccc(NC(=O)/C(C#N)=C/c2cc(C)n(-c3ccc(Br)cc3)c2C)cc1C -18.5%, Cc1ccc(CCNC(=O)c2ccc(CS(=O)(=O)c3ccc(Cl)cc3)o2)cc1 0%, COCCNC(=O)CCCN1C(=O)CCn2nc(-c3cccn3C)cc21 8.74%, Cc1cc2ccccc2n1CCNC(=O)c1ccc(F)cc1 -20.1%, CCN1C(=O)C2(c3ccccc31)c1c(oc3ccc(C)cc3c1=O)C(=O)N2CCCOC(C)C (centres undefined) -11%, Cc1cc(O)c(C(c2ccc(Cl)cc2)N2CCN(c3ccccc3)CC2)c(=O)n1Cc1ccco1 (centres undefined) -7.06%, O=C(c1ccccc1F)N1CCC(c2nc3c(nnn3Cc3cccc(F)c3)c(=O)[nH]2)CC1 0.456%, Cc1oc(-c2ccc(C(=O)NC(C)c3ccccc3)cc2)nc1CS(=O)(=O)c1ccccc1 (centres undefined) -10.2% [at 11.5 µM]
